Assay results as given in the supplement of paper PMC11417369.
± gives the standard deviation of the averaged measurements. The list shows a part of the results.

These sequences were tested on PfAP2-I AP2 domain 3 (GST-tagged) (assay: gcPBM binding intensity (ln(normalized median fluorescence intensity)); higher = stronger DNA binding).
In short: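 Binding intensity is the highest Masliner-normalised natural-log median intensity over replicate spots in either probe orientation. To obtain it, GST-tagged P. falciparum DNA-binding domains made in E. coli were incubated for 1 h on an Agilent 4 × 180k array of primer-extended double-stranded 36-bp intergenic genomic probes plus negative controls. Detection used Alexa488 anti-GST antibody with scanning at 488 nm.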
“AAACGTGTGTATAATAGTACATAATTATAACGTAAT [XGTACX_site421]” was tested, and the “gcPBM binding intensity (ln)” value was 7.72 ± 0.59. “AAATTTGGCAAACACACACACACACCCACAGAGACA [CACACA_site4490]” was tested, and the “gcPBM binding intensity (ln)” value was 8.305 ± 0.021. In the case of “CGTATTTTTGGACATGCATGTACAAATAATCTTATG [TGCATGCA_site973]”, the “gcPBM binding intensity (ln)” value is reported as 8.06 ± 0.42. “TTGGGCATAATGTCATGTACACAAATAATTCTTTAT [XGTACX_site861]” was tested, and the “gcPBM binding intensity (ln)” value was 8.05 ± 0.35. With “ATATATGGAGCTTATACACACTTTTATATTTTAACA [CACACA_site7757]” the “gcPBM binding intensity (ln)” value was 7.86 ± 0.63. In the case of “TTATTTTTTTTAAATTGTACAAGGAACAGTGAAAAA [XGTACX_site4380]”, the “gcPBM binding intensity (ln)” value is reported as 8.47 ± 0.36. For TTTGTGTGTACGCGTGTGCACATTTTTTTTTTTTTT, the “gcPBM binding intensity (ln)” value was 9.58 ± 0.11. In the case of “TAAATGTCTTCAATGAAGTGGAAATGCTGTTATATA [CACACA_negctrl_site1155]”, the “gcPBM binding intensity (ln)” value is reported as 7.67 ± 0.49. In the case of “TATATAACCTATAGCACACATATATAATATATATTA [CACACA_site1834]”, the “gcPBM binding intensity (ln)” value is reported as 8.38 ± 0.33. With “TTCTATTCAAATGCAAAATTATTAAATAAAAAATAA [GTGCAC_negctrl_site708]” the “gcPBM binding intensity (ln)” value was 7.74 ± 0.54. For TATAAATTAAAATGTGTGCACTAAATTGAAATAGAA, the “gcPBM binding intensity (ln)” value was 11.5 ± 0.53. “ATATATATATATAATAGTACATATATTTTTATTGGT [XGTACX_site711]” was tested, and the “gcPBM binding intensity (ln)” value was 9.14 ± 0.23. For “ATATTTTTTACAAATTGTACATTTTTACAATTATTA [XGTACX_site7496]”, the “gcPBM binding intensity (ln)” value was 7.74 ± 0.58. In the case of “TAACCTAAAATAACTACACACACATAAAAAAAAAAA [CACACA_site8807]”, the “gcPBM binding intensity (ln)” value is reported as 8.14 ± 0.71. “TCACTTAATATTTAATGTACATAAGGTTCTTGTGCC [XGTACX_site1822]” was tested, and the “gcPBM binding intensity (ln)” value was 7.79 ± 0.52. For “TTAAAATATGAATAATGTACAAGAAATTTTATTAAT [XGTACX_site6314]”, the “gcPBM binding intensity (ln)” value was 7.79 ± 0.42. For “ATTATTACATTTTTATGTACATATCAAATTTATACA [XGTACX_site7332]”, the “gcPBM binding intensity (ln)” value was 7.92 ± 0.35. For “TTAACTTAAGGAGAGTGTACAAATAATAAAATATCT [XGTACX_site4118]”, the “gcPBM binding intensity (ln)” value was 7.93 ± 0.74. For “AAAAAAAATTTATGGGGTACATATTATAATATTATA [XGTACX_site3395]”, the “gcPBM binding intensity (ln)” value was 8.02 ± 0.54. With “TTATATAACATTATTTGTACATATAAAATATGGATG [XGTACX_site8526]” the “gcPBM binding intensity (ln)” value was 7.6 ± 0.4. “ATGTATGAATTACATAGTACATAAGAAAAAATGAAG [XGTACX_site5942]” was tested, and the “gcPBM binding intensity (ln)” value was 8.16 ± 0.47. For “GTTTTCATCCAAAAAAGTACATTTATTTTTATACGA [XGTACX_site1039]”, the “gcPBM binding intensity (ln)” value was 8.03 ± 0.4. In the case of “GTAGTGGTTGAATATACACACATATATAAATAAATA [CACACA_site7282]”, the “gcPBM binding intensity (ln)” value is reported as 7.87 ± 0.47. In the case of “AAATATAAAGTGCACACACACAAAAAAAGAAAAAAA [CACACA_site6452]”, the “gcPBM binding intensity (ln)” value is reported as 10.2 ± 0.36. In the case of “GGAAAATCTTTATAATGTACATTATGATTATATAAT [XGTACX_site6256]”, the “gcPBM binding intensity (ln)” value is reported as 7.68 ± 0.49. With “ATTCATAATTTATTATGTACATATATATAATATATT [XGTACX_site1711]” the “gcPBM binding intensity (ln)” value was 7.64 ± 0.28. For “AAATAACAAATTTTTAAAATGTATATATATATATAT [TGCATGCA_negctrl_site219]”, the “gcPBM binding intensity (ln)” value was 9.32 ± 0.18. In the case of “ATATCATGTTAAGATTGTACATATATATAATATATA [XGTACX_site7626]”, the “gcPBM binding intensity (ln)” value is reported as 7.64 ± 0.31. With “AATAAATTGGTATGTTGTACAAAGTAACCATCGATT [XGTACX_site2823]” the “gcPBM binding intensity (ln)” value was 7.63 ± 0.57. “AAGGATATAACATACACACACACACCCATATATATA [CACACA_site4142]” was tested, and the “gcPBM binding intensity (ln)” value was 8.38 ± 0.71. With “AAAGAAATTATTTGTTGTACATATGTTATTTTTTTT [XGTACX_site7570]” the “gcPBM binding intensity (ln)” value was 7.75 ± 0.25. In the case of TGCAATTTAATATGAGTGCATATATTGAGAAAATAC, the “gcPBM binding intensity (ln)” value is reported as 10.04 ± 0.035. “TAAAACCTTTAAAATACATGCAGCATATATAAGTAA [TGCATGCA_site181]” was tested, and the “gcPBM binding intensity (ln)” value was 7.87 ± 0.74. “GGAAAATATGTTTGTGTGCACAGCTAGCTATTTGTA [GTGCAC_site9637]” was tested, and the “gcPBM binding intensity (ln)” value was 9.61 ± 0.33. In the case of “AAATAAATTGATTCAACACACACATATGTAGGAAGT [CACACA_site9068]”, the “gcPBM binding intensity (ln)” value is reported as 8.23 ± 0.35. For “AATTTTTTTTGTCTCTGTACTTATAAAATATATATG [XGTACX_site4742]”, the “gcPBM binding intensity (ln)” value was 7.86 ± 0.64. In the case of “TTTTTTTTTTTCAAGCGTACAAAAAATATATTTAAA [XGTACX_site5327]”, the “gcPBM binding intensity (ln)” value is reported as 7.87 ± 0.54. For “CACCCACACCAACACACACACATATATATATATATA [CACACA_site362]”, the “gcPBM binding intensity (ln)” value was 9.86 ± 0.17. For “TATATATGGGTAACCTTTTTTTTTTTTTTTCGAACA [CACACA_negctrl_site1303]”, the “gcPBM binding intensity (ln)” value was 7.33 ± 0.52. In the case of “AAAAAAAATTTTAATTGTACAAAAAAAAAAAATATA [XGTACX_site2259]”, the “gcPBM binding intensity (ln)” value is reported as 7.64 ± 0.55. In the case of “CATATGGCAATAATTACATGCAAAAAAAAAAAAAAA [TGCATGCA_site578]”, the “gcPBM binding intensity (ln)” value is reported as 7.97 ± 0.61. “AATGTAAAAGTAAACACACACATATATTTATACATA [CACACA_site7218]” was tested, and the “gcPBM binding intensity (ln)” value was 7.58 ± 0.59. In the case of “AGCCATATCTTTTTTGCACACACTACAATAAAACAA [CACACA_site1650]”, the “gcPBM binding intensity (ln)” value is reported as 9.72 ± 0.17. For “ACATTTAATGTTATATGTACATAATATTATAAGTAT [XGTACX_site1393]”, the “gcPBM binding intensity (ln)” value was 8.03 ± 0.47.
